The values below come from the supplement of paper PMC9446081.

Structures are written as SMILES. About 220 (0.56%) of roughly 39,000 compounds showed activity. The list shows a part of the results.
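Also: static incubation at 37 °C against the wild-type strain, values averaged over two biological replicates.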

The test system of the test is Escherichia coli K-12 BW25113. The test is described as follows: relative growth (OD600 normalised to plate interquartile mean) (fraction); higher = less growth inhibition, active = 0.2 or less. Particulars: 50 µM; LB; incubation time: overnight (16-24 h).
Turning to `Cc1noc(C)c1NC(=O)N(C)C[C@H]1Oc2ccc(NS(=O)(=O)c3cn(C)cn3)cc2CC(=O)N([C@H](C)CO)C[C@@H]1C`, the relative growth was inactive: 0.996.
For the compound `C[C@@H]1CCCCO[C@@H](CN(C)C(=O)Nc2ccc(F)cc2)[C@H](C)CN([C@H](C)CO)C(=O)c2cc(NC(=O)C3CCCCC3)ccc2O1`, the relative growth was inactive: 1.05.
In the case of `C[C@@H]1CCCCO[C@@H](CN(C)S(=O)(=O)c2cn(C)cn2)[C@@H](C)CN([C@H](C)CO)C(=O)c2cc(NS(C)(=O)=O)ccc2O1`, the relative growth is inactive: 0.983.
`O=C(C[C@@H]1CC[C@H](NC(=O)Cc2ccccn2)[C@H](CO)O1)NCCCN1CCOCC1`: the relative growth was inactive: 0.992.
On to `C[C@H]1CN([C@@H](C)CO)C(=O)Cc2cc(NS(=O)(=O)c3ccc(F)cc3)ccc2O[C@@H]1CN(C)S(=O)(=O)c1ccccc1`, for which the relative growth was inactive: 1.
Under `COCCOC(=O)N1C(=O)[C@@]2(c3cc(C#Cc4ccc(OC)cc4)ccc31)[C@H](C(=O)N1CCc3cc(OC)c(OC)cc3C1)[C@H]1C(=O)O[C@H](c3ccccc3)[C@H](c3ccccc3)N1[C@@H]2c1ccc(OCCO)cc1` stands inactive: 1.02; under `CCc1nc2ccc(C(=O)Nc3cccc(OCC(=O)N(C)C)c3)cn2c1N(CCN(C)C)CC1CC1`, inactive: 0.984.
Next, `CCC1OC(=O)C(C)C(=O)C(C)C(OC2OC(C)CC(N(C)C)C2O)C(C)(OC)CC(C)C(=O)C(C)C2N(CCCCn3cnc(-c4cccnc4)c3)C(=O)OC12C` (configuration not stated): active: 0.0499; `C[C@H](CO)N1C[C@H](C)[C@@H](CN(C)C(=O)c2ccc(N3CCN(C)CC3)cc2)OCc2cnnn2CCCC1=O`: inactive: 0.997.
On to `CCCN(C)C[C@@H]1OCCCC[C@@H](C)Oc2ccc(NC(=O)CCCCCC(=O)Nc3ccccc3N)cc2C(=O)N([C@H](C)CO)C[C@@H]1C`, for which the relative growth was inactive: 0.959.
In the case of `COc1cnc(-n2cnc(C)n2)c2c1c(C(=O)C(=O)N1CCN(C(=O)c3ccccc3)CC1)cn2COP(=O)(O)O`, the relative growth was inactive: 1.02.
Under `CCS(=O)(=O)Nc1ccc2c(c1)C(=O)N(C)[C@H]1CC[C@H](CC(=O)NCCCN3CCOCC3)O[C@@H]1CO2` stands inactive: 1.04; under `C[C@@H]1CCCCO[C@H](CN(C)C(=O)Nc2ccc(C(F)(F)F)cc2)[C@H](C)CN([C@H](C)CO)C(=O)c2cc(NC(=O)Nc3ccc(C(F)(F)F)cc3)ccc2O1`, inactive: 1.
Next, `C[C@@H]1CN([C@@H](C)CO)C(=O)c2cc(NC(=O)Nc3ccc(C(F)(F)F)cc3)ccc2O[C@@H](C)CCCCO[C@H]1CN(C)S(=O)(=O)c1ccc(F)cc1`: inactive: 0.996; `Cc1noc(C)c1S(=O)(=O)Nc1ccc2c(c1)C(=O)N([C@H](C)CO)C[C@H](C)[C@@H](CN(C)C(=O)Nc1ccc(C(F)(F)F)cc1)OCCCC[C@@H](C)O2`: inactive: 0.989; `O=c1ccn([C@H]2C[C@H](O)[C@@H](CO)O2)c(=O)[nH]1`: inactive: 1.
Under `C[C@H](CO)N1C[C@H](C)[C@@H](CN(C)Cc2cccc(O)c2)OCc2ccccc2-c2c(n(C)c3ccccc23)C1=O` stands inactive: 0.996.
For the compound `CN(C)C=C(C=[N+](C)C)c1[nH]ncc1N`, the relative growth was inactive: 1.04.
Take `C[C@@H]1CCCCO[C@@H](CN(C)C(=O)Nc2ccccc2)[C@H](C)CN([C@H](C)CO)C(=O)c2cc(NS(=O)(=O)c3cccs3)ccc2O1`: the relative growth is inactive: 1.03.
Consider `C[C@@H]1CN([C@H](C)CO)C(=O)c2cc(NC(=O)Cc3cn(C)c4ccccc34)ccc2O[C@@H]1CN(C)C(=O)Nc1ccc(C(F)(F)F)cc1`, for which the relative growth is inactive: 0.996.
`C[C@H]1CCCCO[C@@H](CN(C)CC2CCCCC2)[C@@H](C)CN([C@@H](C)CO)C(=O)c2cc(NC(=O)CCCN(C)C)ccc2O1`: the relative growth is inactive: 0.932.
Take `O=S1(=O)CO[C@@H](c2ccccc2)CN1`: the relative growth was inactive: 0.95.
For `O=c1[nH]cc(F)c(=O)[nH]1`, the relative growth was active: 0.196.
For the compound `C[C@H](CO)N1C[C@H](C)[C@H](CN(C)S(=O)(=O)c2cccc(F)c2)Oc2ncc(-c3ccccc3)cc2C1=O`, the relative growth was inactive: 0.992.
As for `C[C@@H]1CN([C@@H](C)CO)C(=O)c2cc(NC(=O)NC3CCCCC3)ccc2O[C@@H](C)CCCCO[C@H]1CN(C)Cc1ccc2c(c1)OCO2`, the relative growth was inactive: 0.998.
`CO[C@@H](CN(C)C(=O)c1ccc2c(c1)OCO2)[C@H](C)CN([C@@H](C)CO)S(=O)(=O)c1ccc(Cl)cc1`: the relative growth is inactive: 1.01.
Turning to `C[C@H](CO)N1C[C@H](C)[C@H](CN(C)Cc2ccc3c(c2)OCO3)Oc2ccc(NC(=O)c3ccncc3)cc2C1=O`, the relative growth is inactive: 1.
Next, `Cc1ccc(S(=O)(=O)N(C)C[C@H]2Oc3ccc(NS(=O)(=O)c4ccccc4)cc3CC(=O)N([C@H](C)CO)C[C@@H]2C)cc1`: inactive: 0.968; `Cc1noc(C)c1S(=O)(=O)N(C)C[C@@H]1Oc2ccc(NS(=O)(=O)c3ccccc3)cc2C(=O)N([C@H](C)CO)C[C@@H]1C`: inactive: 1.03; `Br.NC(=O)C(c1ccccc1)(c1ccccc1)C1CCN(CCc2ccc3c(c2)CCO3)C1` (configuration not stated): inactive: 1.11.
Regarding `C[C@H](CO)N1C[C@H](C)[C@H](CN(C)CC2CCOCC2)Oc2ncc(C#Cc3cccc(F)c3)cc2C1=O`, the relative growth was inactive: 0.991.
Turning to `Cc1ccc(S(=O)(=O)N(C)C[C@@H]2Oc3ccc(NC(=O)Nc4cccc5ccccc45)cc3C(=O)N([C@@H](C)CO)C[C@H]2C)cc1`, the relative growth was inactive: 1.01.
For the compound `Cc1ccc(OC(=O)n2c3ccccc3c3ccccc32)cc1`, the relative growth is inactive: 1.
In the case of `C[C@H](CO)N1C[C@H](C)[C@@H](CN(C)Cc2ccc(Oc3ccccc3)cc2)Oc2ccc(NC(=O)Nc3ccc(C(F)(F)F)cc3)cc2CC1=O`, the relative growth was inactive: 1.03.
As to `COc1ccc(S(=O)(=O)N(C)C[C@@H]2Oc3ccc(NC(=O)c4ccncc4)cc3C(=O)N([C@H](C)CO)C[C@@H]2C)cc1`, the relative growth is inactive: 0.987.
With `C[C@H](CO)N1C[C@H](C)[C@H](CN(C)Cc2ccc(C(F)(F)F)cc2)Oc2ccc(NC(=O)CCC(F)(F)F)cc2CC1=O`, the relative growth was inactive: 1.06.
Turning to `CC(C(=O)O)c1ccc(-c2ccccc2)c(F)c1` (configuration not stated), the relative growth is inactive: 1.03.
As to `C[C@@H]1CCCCO[C@@H](CN(C)Cc2ccc(Cl)c(Cl)c2)[C@H](C)CN([C@H](C)CO)C(=O)c2cc(NS(=O)(=O)c3ccc(Cl)cc3)ccc2O1`, the relative growth was inactive: 0.99.
For `C[C@@H]1O[C@@H](OC[C@H]2O[C@@H](Oc3c(-c4ccc(O)cc4)oc4cc(O)cc(O)c4c3=O)[C@H](O)[C@@H](O)[C@@H]2O)[C@H](O)[C@H](O)[C@H]1O`, the relative growth is inactive: 1.02.
For the compound `C[C@@H]1CCCCO[C@@H](CN(C)C(=O)Nc2ccc(C(F)(F)F)cc2)[C@H](C)CN([C@H](C)CO)C(=O)c2cc(NS(=O)(=O)c3cccs3)ccc2O1`, the relative growth is inactive: 1.03.
Under `C[C@@H]1CN([C@@H](C)CO)C(=O)c2cc(NS(=O)(=O)c3cn(C)cn3)ccc2O[C@H]1CN(C)S(=O)(=O)c1cccs1` stands inactive: 0.981; under `C[C@@H]1CN([C@H](C)CO)C(=O)c2cccc(NC(=O)Nc3ccc(F)cc3)c2O[C@H]1CN(C)Cc1ccc(C(=O)Nc2ccccc2N)cc1`, inactive: 1.01.
Consider `Cc1cc(O)c2c(c1)C(=O)c1cccc(O)c1C2=O`, for which the relative growth was inactive: 1.07.
Under `NC(=O)c1cn(Cc2c(F)cccc2F)nn1` stands inactive: 0.998.
`CC(C[N+](C)(C)C)OC(N)=O.[Cl-]` (configuration not stated): the relative growth is inactive: 1.13.
Under `C[C@@H]1CN([C@H](C)CO)C(=O)Cc2cc(NC(=O)Nc3ccccc3)ccc2O[C@@H]1CN(C)Cc1ccc(-c2ccccc2)cc1` stands inactive: 0.985; under `C[C@H](CO)N1C[C@H](C)[C@H](CN(C)S(=O)(=O)c2cn(C)cn2)OCc2ccccc2-c2c(n(C)c3ccccc23)C1=O`, inactive: 1.03; under `C[C@@H]1CCCCO[C@@H](CN(C)S(=O)(=O)c2cccs2)[C@@H](C)CN([C@H](C)CO)C(=O)c2cc(NC(=O)C3CCCCC3)ccc2O1`, inactive: 0.99.
Under `COc1ccc(CN(C)C[C@H]2OCCCC[C@@H](C)Oc3ccc(NC(=O)Cc4ccccc4)cc3C(=O)N([C@H](C)CO)C[C@H]2C)cc1` stands inactive: 0.994; under `C[C@H]1CN([C@@H](C)CO)C(=O)c2cc(C#Cc3cccnc3)cnc2O[C@@H]1CN(C)Cc1ccc(F)cc1`, inactive: 0.993.
In the case of `C[C@H]1CN([C@@H](C)CO)C(=O)c2cccc(NS(=O)(=O)c3cn(C)cn3)c2O[C@H]1CN(C)S(=O)(=O)c1cn(C)cn1`, the relative growth is inactive: 0.986.
For `Cc1ccc(S(=O)(=O)Nc2ccc3c(c2)C(=O)N([C@@H](C)CO)C[C@@H](C)[C@H](CN(C)Cc2ccc(C(F)(F)F)cc2)OCCCC[C@@H](C)O3)cc1`, the relative growth is inactive: 0.903.
With `COc1ccc(NC(=O)N(C)C[C@@H]2OCCCC[C@@H](C)Oc3ccc(NS(=O)(=O)c4cccs4)cc3C(=O)N([C@@H](C)CO)C[C@H]2C)cc1`, the relative growth is inactive: 1.03.
Consider `CC(=O)O[C@@H]1[C@@H](OC(C)=O)[C@H](C)O[C@@H](O[C@H]2[C@H](OC/C=C(\C)CC/C=C(\C)CC/C=C(\C)CCC=C(C)C)O[C@H](CO[C@@H]3O[C@@H](C)[C@H](O)[C@@H](O)[C@H]3O)[C@@H](O)[C@@H]2O)[C@@H]1OC(C)=O`, for which the relative growth was inactive: 0.793.
With `CNC[C@@H]1Oc2ccc(NC(=O)Cn3cnnn3)cc2C(=O)N([C@@H](C)CO)C[C@H]1C`, the relative growth was inactive: 0.977.
In the case of `C[C@@H]1CN([C@H](C)CO)C(=O)c2cc(NC(=O)C3CCCCC3)ccc2O[C@@H](C)CCCCO[C@@H]1CN(C)C(=O)CCC(F)(F)F`, the relative growth was inactive: 1.02.
Next, `COc1ccc(NC(=O)N(C)C[C@@H]2Oc3ccc(NC(=O)Cn4cnnn4)cc3CC(=O)N([C@H](C)CO)C[C@H]2C)cc1`: inactive: 1.01.
